The record followed here is article PMC7880690, “Chemical genetics and proteome-wide site mapping reveal cysteine MARylation by PARP-7 on immune-relevant protein targets” (eLife, 2021).

Assay [1] has as its target T1, PARP12cat (Homo sapiens, UniProt Q9H0J9).
T1 sequence (Q9H0J9 484-698 limits assumed): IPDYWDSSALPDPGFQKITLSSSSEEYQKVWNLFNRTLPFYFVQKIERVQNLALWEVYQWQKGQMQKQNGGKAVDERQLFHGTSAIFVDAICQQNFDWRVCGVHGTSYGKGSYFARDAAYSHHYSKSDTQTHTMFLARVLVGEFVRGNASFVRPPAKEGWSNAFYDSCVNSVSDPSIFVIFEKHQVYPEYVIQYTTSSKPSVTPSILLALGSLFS
Briefly: ADP-ribosylation plate assay, PARP12cat.

Assay [2] has as its system MycX2-PARP-13.2. The note with it: HEK 293 T cell time course, 1 μM.
In assay [3] the target is T2, PARP10cat (Homo sapiens, UniProt Q53GL7).
T2 sequence (Q53GL7 806-1025 limits assumed): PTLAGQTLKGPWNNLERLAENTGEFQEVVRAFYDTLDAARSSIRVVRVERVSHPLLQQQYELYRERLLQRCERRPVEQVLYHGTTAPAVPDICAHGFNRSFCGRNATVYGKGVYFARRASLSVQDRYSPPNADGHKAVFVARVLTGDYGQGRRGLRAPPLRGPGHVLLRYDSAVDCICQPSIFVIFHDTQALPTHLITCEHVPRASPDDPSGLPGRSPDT
The assay can be described thus: ADP-ribosylation plate assay, PARP10cat.

For orientation: IC50 means the concentration at which inhibition is half-maximal. Lower therefore signals greater potency in that assay. As to `N#Cc1ccc(N2CCN(C(=O)c3cc(Cc4n[nH]c(=O)c5ccccc45)ccc3F)CC2)nc1` [Phthal01, 6-(4-(2-fluoro-5-((4-oxo-3,4-dihydrophthalazin-1-yl)methyl)benzoyl)piperazin-1-yl)nicotinonitrile], the IC50 in assay [1] is above 3000 nM; in assay [3], 860 ± 300 nM. The “protein levels of ectopically expressed MycX2-PARP-13.2” value in assay [2] was “increased”.
